This is one part of the list. At the low end of the ranking the order means little.

The target in the assay is SIX1 homeodomain (reference allele) (UniProt Q15475). As to the kind of experiment: universal protein binding microarray. The conditions noted are these: Universal all-10-mer PBM (8x60K, AMADID 030236), 300 nM GST-tagged protein, Alexa Fluor 488 anti-GST; buffer, salt, pH and temperature not stated; high values mean tight binding; most listed sequences are background and not binding sites; double strand, one strand shown.
For AGAATGTG, the binding signal was -0.262 E-score.

On to AGGATACA, for which the binding signal was found to be 0.337 E-score.

On to AAACTAAT, for which the binding signal is -0.0246 E-score.

Take ATTGGGTC: the binding signal is -0.159 E-score.

For CGATTATC, the binding signal amounted to 0.181 E-score.

In the case of AAGGTCGA, the binding signal is -0.197 E-score.

As to GCGTTGAC, the binding signal was -0.25 E-score.

On to AGCGCCAC, for which the binding signal is -0.185 E-score.

On to CAGTCGGC, for which the binding signal is -0.118 E-score.

On to CCGGGAGC, for which the binding signal is -0.107 E-score.

As for TACACGCA, the binding signal came out at 0.0534 E-score.

For AACCGCTC, the binding signal was -0.209 E-score.

Turning to GAAAAGGC, the binding signal was -0.18 E-score.

As to CACGATAA, the binding signal was determined as 0.0161 E-score.

CACTGAAC: the binding signal is -0.152 E-score.

Regarding CCATCTTA, the binding signal was -0.0205 E-score.

Consider AAAATCAC, for which the binding signal was -0.177 E-score.

With CCGGCATA, the binding signal amounted to 0.0711 E-score.

As to CGTGTCAG, the binding signal was determined as 0.202 E-score.

As to AATTCTGT, the binding signal was -0.201 E-score.

As to CCCAGCTC, the binding signal was 0.128 E-score.

CCGCTTCG: the binding signal was -0.159 E-score.

On to TCTCGCAA, for which the binding signal was 0.0827 E-score.

Regarding TGTTGCAA, the binding signal was -0.16 E-score.

For TAATCATA, the binding signal was found to be 0.134 E-score.

Take GATTGGCC: the binding signal is -0.183 E-score.

Consider ATGGGGGA, for which the binding signal was 0.11 E-score.

For CGGGCCGC, the binding signal turned out to be 0.0334 E-score.

As to GGCGGGTA, the binding signal was determined as 0.228 E-score.

Take GTGGGAAC: the binding signal is -0.25 E-score.

Take ATACGCGG: the binding signal was 0.182 E-score.

As for ATACACTA, the binding signal was 0.297 E-score.

For the sequence AACGACGA, the binding signal was -0.0982 E-score.

For the sequence CGCAAGTA, the binding signal worked out at 0.0753 E-score.

With ATTCTCGG, the binding signal was -0.0499 E-score.

Turning to AGGCTACT, the binding signal was -0.0855 E-score.

In the case of ATATTATG, the binding signal is 0.299 E-score.

As for GTACCCAA, the binding signal is -0.0233 E-score.

For the sequence CGATTTAG, the binding signal is -0.0787 E-score.

Turning to GACGCCAC, the binding signal was -0.0329 E-score.

Turning to CTCGCCAG, the binding signal is -0.0747 E-score.

Regarding AACGGCGT, the binding signal is -0.163 E-score.

Regarding ACAAACGC, the binding signal is -0.079 E-score.

ATGACGCA: the binding signal came out at 0.0615 E-score.

For the sequence CAGCCTCA, the binding signal is 0.055 E-score.

Turning to ATGTATAG, the binding signal turned out to be 0.217 E-score.

Regarding ACTTCATG, the binding signal is -0.0719 E-score.

On to GAATCGTA, for which the binding signal stood at 0.0549 E-score.

Consider ACGACGTC, for which the binding signal was -0.0461 E-score.

With CCACTAGA, the binding signal is -0.0637 E-score.

Turning to ATCTTGTA, the binding signal stood at 0.184 E-score.

CTAAAAAA: the binding signal was -0.0435 E-score.

For the sequence GTGGCGCA, the binding signal is -0.18 E-score.

For the sequence CCGGATTA, the binding signal was found to be 0.351 E-score.

As for AATACTGA, the binding signal turned out to be 0.0647 E-score.

For CTTCAGAA, the binding signal is -0.158 E-score.

Take ACCATCTG: the binding signal is 0.144 E-score.

In the case of ACCATAAC, the binding signal was -0.0318 E-score.

Regarding GCGTGCCC, the binding signal was -0.101 E-score.

For the sequence CGGACTAG, the binding signal is -0.126 E-score.

Regarding AACGGTGG, the binding signal is -0.0756 E-score.

Consider TATCGAGA, for which the binding signal amounted to 0.293 E-score.

As for GTGGGTAA, the binding signal was -0.0776 E-score.

As for TATTGTGA, the binding signal worked out at 0.19 E-score.

As for ACCGAGAG, the binding signal turned out to be 0.0847 E-score.

On to TCGGTACA, for which the binding signal was 0.0942 E-score.

For CCACGACC, the binding signal was -0.17 E-score.

On to TAGGTAGA, for which the binding signal is 0.0282 E-score.

As to ATCACCCA, the binding signal amounted to 0.308 E-score.

Consider ACTACCGC, for which the binding signal was -0.0862 E-score.

In the case of CCACGCGA, the binding signal came to 0.0314 E-score.

Turning to CGGCGCAG, the binding signal was -0.119 E-score.

Turning to GGCGATAA, the binding signal was determined as 0.112 E-score.

As for GGCACTAA, the binding signal was -0.152 E-score.

Consider GAACCTGC, for which the binding signal is -0.0489 E-score.

For ATAGTAAT, the binding signal stood at 0.138 E-score.

On to CCCGTTCC, for which the binding signal is -0.124 E-score.

Consider ACCATGTC, for which the binding signal was 0.101 E-score.

With CCCTCTAC, the binding signal was found to be 0.059 E-score.

As to TACCTGCA, the binding signal is -0.0766 E-score.

Consider AAAGCCTG, for which the binding signal was -0.0921 E-score.

As to GACAACCA, the binding signal is -0.158 E-score.

Regarding GAGTTACC, the binding signal was -0.0969 E-score.

GTCCAATA: the binding signal came out at 0.105 E-score.

AGGGCGTA: the binding signal is -0.0135 E-score.

Turning to AACGGGTC, the binding signal was -0.272 E-score.

Consider ACATTACG, for which the binding signal is -0.218 E-score.

Regarding AACCCAAC, the binding signal was 0.0602 E-score.

With GACGCTAA, the binding signal is -0.191 E-score.

Consider CCCGTTAA, for which the binding signal was -0.146 E-score.

Take CGTTGGCC: the binding signal is -0.17 E-score.

Regarding AGCAAGCT, the binding signal is -0.278 E-score.

ATAACACA: the binding signal is -0.00834 E-score.

Turning to CAGTATCC, the binding signal is 0.39 E-score.

With AGCAGAAC, the binding signal was determined as 0.0537 E-score.

As for AGTCGAGG, the binding signal is -0.0141 E-score.

Take AGGAGCAA: the binding signal was -0.176 E-score.

Take AGCCGGGG: the binding signal turned out to be 0.0708 E-score.

CTATCCTC: the binding signal turned out to be 0.282 E-score.

With GACGGTTA, the binding signal was -0.163 E-score.

For CCGAGGGC, the binding signal was -0.182 E-score.

Regarding AAGGATAG, the binding signal is 0.195 E-score.

For ACCATCAG, the binding signal was -0.0452 E-score.

In the case of AGCCTGTC, the binding signal is -0.079 E-score.

For the sequence CGCTCATA, the binding signal is -0.0628 E-score.

As to AAGTAGAA, the binding signal is -0.0618 E-score.

For GAACAGCC, the binding signal is -0.164 E-score.

As to GAGAGATA, the binding signal was found to be 0.323 E-score.

On to CAAGTTGA, for which the binding signal was determined as 0.00464 E-score.

Take ATAGGTGG: the binding signal was 0.0806 E-score.

Take CCGCTCTA: the binding signal was -0.112 E-score.

On to CGAGACGC, for which the binding signal is 0.167 E-score.

Consider AAATAATT, for which the binding signal is -0.0636 E-score.

For the sequence CTTTTCCC, the binding signal was -0.35 E-score.

With ACACCTTG, the binding signal came out at 0.186 E-score.

For AAACCTGC, the binding signal is -0.0926 E-score.

For the sequence CCAGCGTC, the binding signal worked out at 0.133 E-score.

Turning to ATAATGAA, the binding signal amounted to 0.0856 E-score.

For CAGCACGG, the binding signal was -0.137 E-score.

In the case of TGTATCAA, the binding signal stood at 0.41 E-score.

On to ATCGGGTG, for which the binding signal was found to be 0.32 E-score.

Consider CCTCCGAA, for which the binding signal was -0.0218 E-score.

On to CGACACCA, for which the binding signal is 0.416 E-score.

Regarding AGTTTTCC, the binding signal is -0.0644 E-score.

Take CATTGTAC: the binding signal is -0.047 E-score.

Regarding AGGTCCCG, the binding signal is -0.152 E-score.

Regarding AGGCTAAC, the binding signal was -0.0677 E-score.

For the sequence AATAGCGT, the binding signal is -0.111 E-score.

On to ACAAATTA, for which the binding signal is -0.0981 E-score.

In the case of AAAAGTAA, the binding signal is -0.223 E-score.

As for CTCTGGTC, the binding signal is -0.00895 E-score.

As for AGTGCATA, the binding signal is -0.0255 E-score.

Consider ACGACTTC, for which the binding signal is -0.313 E-score.

Turning to CATTTTGG, the binding signal is -0.146 E-score.

CCCGTATA: the binding signal came out at 0.29 E-score.

Consider AATCTACT, for which the binding signal was -0.0322 E-score.

With GTTATCTA, the binding signal is 0.0655 E-score.

For the sequence CGAGGTCA, the binding signal was -0.15 E-score.

As to CATTCCCC, the binding signal was -0.00963 E-score.

Turning to CATTTTCC, the binding signal is -0.145 E-score.

CAATGTAA: the binding signal is -0.0788 E-score.

On to CTAAAAGA, for which the binding signal stood at 0.0522 E-score.

TAAACGCA: the binding signal was -0.0325 E-score.

For the sequence GCAGACGA, the binding signal was 0.0652 E-score.

CAAAAATC: the binding signal was -0.234 E-score.

For the sequence CACCTAAC, the binding signal was -0.0096 E-score.

Consider CAGACGGG, for which the binding signal was -0.0188 E-score.

Take AAGAATTC: the binding signal is -0.223 E-score.

As for ACGAGCAA, the binding signal was -0.334 E-score.

For the sequence CTGGCTGA, the binding signal was 0.0779 E-score.

With ACAGCCGC, the binding signal is -0.111 E-score.

As for ACGTATGC, the binding signal was determined as 0.0454 E-score.

Take TAAGTATA: the binding signal is 0.218 E-score.

As to GCAAAAGA, the binding signal was -0.169 E-score.

In the case of CGCCCGCC, the binding signal was -0.00312 E-score.

As to CGTATTCA, the binding signal was 0.265 E-score.

As to CATCCAGC, the binding signal was 0.00619 E-score.

For the sequence ACGGGAAG, the binding signal was -0.095 E-score.

With GACATGTC, the binding signal is -0.256 E-score.

In the case of ATATGGCA, the binding signal worked out at 0.204 E-score.

With AAGCTGCC, the binding signal is -0.118 E-score.

Regarding AGGACGAA, the binding signal is -0.126 E-score.

Turning to GAGAGACA, the binding signal came out at 0.0879 E-score.

For CGACTAAA, the binding signal came to 0.0129 E-score.

GGATAGAC: the binding signal stood at 0.151 E-score.

In the case of AGCGACTA, the binding signal is -0.202 E-score.

With AATTAGGT, the binding signal was -0.0262 E-score.

Regarding CTTACGCC, the binding signal is -0.0992 E-score.

In the case of CACAACCA, the binding signal is -0.113 E-score.

For CCCAATCG, the binding signal turned out to be 0.0344 E-score.

Turning to AACTCCAG, the binding signal is -0.0574 E-score.

GCCCTGTA: the binding signal was -0.0643 E-score.
